In PubChem BioAssay AID624296 (National Center for Advancing Translational Sciences (NCATS), 2012):
Among all 350,000 compounds or so, about 9,900 (2.8%) were called active. This list was built around the results that the source calls inconclusive (neither active nor inactive); the mix of calls is not that of the screen. Calls follow the shape of the dose curve; as a rule, active = well fitted activation curve with a large enough effect; inconclusive = small, poorly fitted or top-dose-only effect; inactive = no such curve, though single readings can be large or run the other way. No potency is given beside an inconclusive call; the fits are too rough.

Assay: A quantitative high throughput screen for small molecules that induce DNA re-replication in MCF 10a normal breast cells. Also: nearly all actives have a fitted effect of over 50% in size. As to activity, positive = re-replication: % of control where 0% means no effect.
Conditions: MCF 10A DNA re-replication, Hoechst nuclear intensity, 48 h; activity, positive = re-replication: at 46.1 µM (top of the series)
Potency is read from the fitted curve at half-maximal effect; tags tell the direction and shape of the fitted curve.

For `CN(Cc1nccs1)C(=O)c1cc(COc2cccc3cnccc23)on1`, which Potency is on record?
The Potency was inconclusive [activator, partial curve, poor fit].

For `O=C(CCc1ccccc1F)N1CCN(c2ccccc2)CC1`, which Potency is on record?
The Potency was inconclusive [activator, single point].

With `CCOC(=O)C1=C(COC(=O)c2ccco2)NC(=O)NC1CC` (configuration not stated) as the compound, how does the “activity, positive = re-replication” value read?
Its value is inactive: 2.14%.

With `Cc1c(C)n2c(SCC(=O)N3CCCCC3)nnc2[nH]c1=O` as the compound, how does the Potency read?
Its Potency is inconclusive [activator, partial curve, poor fit].

For `CCOc1ccc(/C=N/NC(=O)c2cc3c(OC)cc(OC)c(OC)c3[nH]2)cc1`, which Potency is on record?
Its Potency is inconclusive [activator, full curve, poor fit].

With `CN1CCN(Cc2ccc(Sc3ccc(Cl)cc3)c([N+](=O)[O-])c2)CC1` as the compound, how does the “activity, positive = re-replication” value read?
Its value is inactive: 29.9%.

For `Fc1ccccc1N=C1NN=C(c2ccccc2)CS1`, which Potency is on record?
The Potency was inconclusive [activator, single point].

Which “activity, positive = re-replication” value does the source give for `Cc1ccc(CSc2nnc(SCC(=O)N/N=C/c3ccc(C(=O)O)cc3)s2)cc1` here?
The value was inactive: 25.3%.

For `CCN(C(=O)COC(=O)CNC(=O)c1ccc(C)cc1)c1c(N)n(Cc2ccccc2)c(=O)[nH]c1=O`, which “activity, positive = re-replication” value is on record?
The value was inactive: -0.625%.

For `Cc1ccc(-c2cc(C(F)(F)F)n3nc(C(=O)N4CCN5CCCC5C4)cc3n2)cc1` (configuration not stated), which Potency is on record?
The Potency was inconclusive [activator, single point].

With `CC(C)C(NC(=O)c1ccccc1)C(=O)NC1=NCCS1` (configuration not stated) as the compound, how does the Potency read?
The Potency was inconclusive [activator, partial curve, poor fit].

With `COc1ccc2c(c1)CC/C(=C/c1cc(OC)c(OC)c(OC)c1)C2=O` as the compound, how does the Potency read?
Its Potency is inconclusive [activator, single point].

For `CCCn1c(N)[n+](CC(=O)c2ccco2)c2ccccc21`, which “activity, positive = re-replication” value is on record?
Its value is inactive: 0.244%.

Which Potency does the source give for `O=C(C[C@H]1C[C@H](C(=O)N2CCCCC2)[C@@]2(CCc3ccccc3)c3[nH]c4ccc(Cl)cc4c3CCN2C1=O)NCCCn1ccnc1` here?
The Potency was inconclusive [activator, full curve, poor fit].

Which “activity, positive = re-replication” value does the source give for `CC(=O)c1sc2nsc(SCCN3CCOCC3)c2c1N` here?
Its value is inactive: 2.99%.

Which “activity, positive = re-replication” value does the source give for `CCOc1ccc(C(=O)C2CCN(C(=O)c3ccc([N+](=O)[O-])cc3)CC2)cc1` here?
The value was inactive: -2.5%.

Which “activity, positive = re-replication” value does the source give for `Cc1ccccc1C(=O)Nc1ccccc1NC(=O)c1ccccc1C` here?
The value was inactive: 6.72%.

Which Potency does the source give for `Cc1cc(C=O)c(C)n1-c1ccc(NC2CCCC2)c([N+](=O)[O-])c1` here?
Its Potency is inconclusive [activator, single point].

With `Cc1nn(-c2ccccc2)c(C)c1C(=O)OCC(=O)Nc1ccccc1F` as the compound, how does the Potency read?
The Potency was inconclusive [activator, single point].

For `COCCCNC(=O)c1ccccc1N(Cc1ccccc1)S(=O)(=O)c1ccc(OC)cc1`, which Potency is on record?
The Potency was inconclusive [activator, single point].

Which Potency does the source give for `CCc1cccc2c1NC1(CCCC1)CC2C` (configuration not stated) here?
Its Potency is inconclusive [activator, single point].

For `CC(SCc1ccccc1)C(=O)Nc1ccc(F)cc1` (configuration not stated), which “activity, positive = re-replication” value is on record?
The value was inactive: 21.9%.

For `COC(=O)COc1ccc(S(=O)(=O)Nc2ccccc2C(=O)OC)cc1`, which Potency is on record?
The Potency was inconclusive [activator, partial curve, poor fit].

Which “activity, positive = re-replication” value does the source give for `CC(C)Cn1cc(C(=O)NCCCN2CCCC2=O)c2c3ccccc3n(C)c2c1=O` here?
The value was inactive: 18.4%.

Which Potency does the source give for `CCOC(=O)c1sc2nc(CSc3ccccc3)nc(N3CCC(C(N)=O)CC3)c2c1C` here?
The Potency was inconclusive [activator, single point].

For `CCCCCNC(=O)c1cc(S(=O)(=O)N2CCCC2)ccc1F`, which Potency is on record?
The Potency was inconclusive [activator, single point].

For `COc1cccc(CN2C(=O)C(C)N(C(=O)c3c(F)cccc3F)c3ccccc32)c1` (configuration not stated), which Potency is on record?
Its Potency is inconclusive [activator, partial curve, poor fit].

With `CN1C(=O)CSC1=Nc1ccc(F)cc1` as the compound, how does the Potency read?
The Potency was inconclusive [activator, single point].

Which “activity, positive = re-replication” value does the source give for `Cc1cccc(CS(=O)(=O)Cc2ccc(C(=O)NC3CCCCC3)o2)c1` here?
The value was inactive: 17.5%.

For `O=C(NCc1ccco1)c1cccc(-c2nnc(-c3ccccc3)o2)c1`, which Potency is on record?
The Potency was inconclusive [activator, full curve, poor fit].

For `Cn1c(=O)c2c([nH]c(OCc3ccc(Cl)cc3Cl)[n+]2Cc2ccc(F)cc2)n(C)c1=O`, which Potency is on record?
The Potency was inconclusive [activator, full curve, poor fit].

With `NC(=O)c1ccc(C(F)(F)F)n(Cc2ccc(Cl)cc2)c1=O` as the compound, how does the Potency read?
Its Potency is inconclusive [activator, single point].

For `CCn1c(C)cc(O)c(C(=O)Nc2cccc(Cl)c2)c1=O`, which “activity, positive = re-replication” value is on record?
The value was inactive: -1.93%.

For `O=C(O)CCCCCN1C(=O)/C(=C\c2ccncc2)SC1=S`, which Potency is on record?
Its Potency is inconclusive [activator, single point].

With `O=C(CCl)c1cc2c3c(c1)CC(=O)N3CCC2` as the compound, how does the Potency read?
Its Potency is inconclusive [activator, single point].

Which Potency does the source give for `COc1cc(O)sc1C=Nc1ccc(Cl)cc1Cl` here?
Its Potency is inconclusive [activator, partial curve, poor fit].

For `Cc1ccc(C(=O)OCC(=O)NCc2cccs2)cc1C`, which “activity, positive = re-replication” value is on record?
The value was inactive: 0.876%.

With `CC1=CN2C(=N)/C(=C/c3ccc(Sc4ccc(Cl)cc4)o3)C(=O)N=C2S1` as the compound, how does the Potency read?
The Potency was inconclusive [activator, single point].

For `S=c1[nH]nc(C2CCCCC2)n1/N=C/C(Cl)=C\c1ccccc1`, which Potency is on record?
The Potency was inconclusive [activator, single point].

Which Potency does the source give for `Cc1cc(C(=O)NC2CCCN(Cc3ccc(Cl)cc3)C2)n(C)n1` (configuration not stated) here?
Its Potency is inconclusive [activator, single point].

For `Cc1ccc(C(=O)n2c(-c3ccccc3)cnc2SCC(=O)Nc2ccccc2)cc1`, which Potency is on record?
The Potency was inconclusive [activator, partial curve, poor fit].

With `CC(C)(C)NS(=O)(=O)c1ccc(NC(=S)NC(=O)C2CCC2)cc1` as the compound, how does the Potency read?
Its Potency is inconclusive [activator, partial curve, poor fit].

For `COC(=O)c1ccccc1NC(=O)Cc1nc(-c2ccccc2)sc1-c1ccc(C)cc1`, which Potency is on record?
The Potency was inconclusive [activator, single point].

With `N#Cc1ccccc1/C=N/Nc1nc(-c2ccccc2)c2cc(Br)ccc2n1` as the compound, how does the Potency read?
Its Potency is inconclusive [activator, single point].

For `CCN1CCN(C(C)CCc2ccccc2)CC1` (configuration not stated), which Potency is on record?
Its Potency is inconclusive [activator, full curve].

Which Potency does the source give for `C/C(=N/Nc1ccnc2cc(Cl)ccc12)c1ccc(O)cc1` here?
Its Potency is inconclusive [activator, single point].

With `CN1Cc2c(N3CCOCC3)nc(SCc3ccccc3)c(C#N)c2CC1(C)C` as the compound, how does the Potency read?
The Potency was inconclusive [activator, partial curve, poor fit].

For `CCC(=O)c1ccccc1OCCSc1nc(C)cc(=O)[nH]1`, which “activity, positive = re-replication” value is on record?
The value was inactive: 21.6%.

For `CC1=NN(C(=O)CSCc2ccccc2)C(O)(c2ccc(Cl)cc2)C1` (configuration not stated), which Potency is on record?
The Potency was inconclusive [activator, single point].

Which “activity, positive = re-replication” value does the source give for `Cc1ccc(C)c(OCC(=O)Nc2ccc(N3CCOCC3)cc2)c1` here?
Its value is inactive: -3.04%.

Which Potency does the source give for `CC1=NN(c2ccccc2)C(=O)/C1=C\c1sccc1C` here?
Its Potency is inconclusive [activator, partial curve, poor fit].

For `N#C/C(=C(/O)COC(=O)CSc1ccc(Cl)cc1)c1nc2ccccc2[nH]1`, which Potency is on record?
The Potency was inconclusive [activator, partial curve, poor fit].

With `COc1ccc(-n2ncc3c(NCc4ccc5c(c4)OCO5)ncnc32)cc1` as the compound, how does the “activity, positive = re-replication” value read?
Its value is inactive: 7.3%.

For `O=C(C1=C[C@H](c2coc3ccccc3c2=O)C[C@H](OCCCCO)O1)N1CCN(Cc2ccccc2)CC1`, which “activity, positive = re-replication” value is on record?
Its value is inactive: -5.72%.

With `COCCCNc1nc(N)c([N+](=O)[O-])c(Nc2cc(OC)ccc2OC)n1` as the compound, how does the Potency read?
The Potency was inconclusive [activator, single point].

Which Potency does the source give for `C[C@@H](CSc1ccccc1)CN1CC[C@H](O)CCC1=O` here?
Its Potency is inconclusive [activator, single point].

With `CCCCCCCCCCCCN1C(=O)CSC1c1cccnc1` (configuration not stated) as the compound, how does the Potency read?
The Potency was inconclusive [activator, single point].

Which Potency does the source give for `Nc1ncc(-c2nnnn2-c2ccc(Cl)cc2)c(-c2ccc(Cl)cc2)n1` here?
Its Potency is inconclusive [activator, full curve, poor fit].

Which Potency does the source give for `COc1ccccc1N=Cc1c(C)c(C#N)c2[nH]c3ccccc3n2c1=O` here?
Its Potency is inconclusive [activator, single point].

For `COc1cc(/C=C2/SC(=S)N(CCC(=O)Nc3ccccc3)C2=O)cc(OC)c1OC`, which Potency is on record?
Its Potency is active: 20.6 µM.

With `Cc1nc(NCc2ccco2)[nH]c(=O)c1CCC(C)C` as the compound, how does the “activity, positive = re-replication” value read?
The value was inactive: 7.79%.

Which Potency does the source give for `CCSc1nc(-c2ccc(OC)cc2)cc(-c2ccccc2)c1C#N` here?
Its Potency is inconclusive [activator, single point].

With `Cn1c(CN2CCN(c3cccc(Cl)c3)CC2)nc2ccccc21` as the compound, how does the Potency read?
The Potency was inconclusive [activator, partial curve, poor fit].

Which Potency does the source give for `CCc1nc(NCC2CCCN2CC)c2nnn(Cc3ccccc3F)c2n1` (configuration not stated) here?
Its Potency is inconclusive [activator, partial curve, poor fit].

Which Potency does the source give for `C[C@H]1CN([C@@H](C)CO)C(=O)c2cc(NC(=O)C3CCCCC3)ccc2O[C@H]1CN(C)S(=O)(=O)c1ccccc1` here?
Its Potency is inconclusive [activator, single point].

With `C[C@@H]1CN([C@H](C)CO)C(=O)c2cccc(NS(=O)(=O)c3cccs3)c2O[C@H]1CN(C)Cc1ccccc1` as the compound, how does the “activity, positive = re-replication” value read?
The value was inactive: 3.35%.

For `CN(c1cccc(Cl)c1)S(=O)(=O)c1cccc(C(=O)Nc2nc3ccccc3[nH]2)c1`, which Potency is on record?
The Potency was active: 8.2 µM.
